# Reference: the BET-seq Pho4 binding data (Le et al. 2018)
# Some of the results follow. These are noisy estimates, calculated here from bound and input reads.
# Target: T1, Pho4 (S. cerevisiae) (UniProt P07270)
# T1 sequence: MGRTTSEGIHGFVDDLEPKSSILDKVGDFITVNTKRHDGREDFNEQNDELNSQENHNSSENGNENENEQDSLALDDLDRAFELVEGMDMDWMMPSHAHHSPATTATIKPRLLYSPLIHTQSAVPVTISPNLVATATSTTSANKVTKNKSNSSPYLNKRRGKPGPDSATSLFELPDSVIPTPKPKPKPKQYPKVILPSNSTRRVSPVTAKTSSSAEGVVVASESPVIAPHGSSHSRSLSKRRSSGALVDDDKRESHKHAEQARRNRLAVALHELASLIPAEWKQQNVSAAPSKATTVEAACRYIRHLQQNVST
# Experiment: relative binding free energy (BET-seq); higher = weaker binding
# Conditions: reference: library average
row,Sequence,relative binding free energy [kcal/mol]
1,GTGGCCACGTGGCGAG,-0.22
2,GGATCCACGTGTGGAT,0.14
3,AGGTTCACGTGGCAGG,0.16
4,TGGGCCACGTGAGATT,0.12
5,GGGAGCACGTGAGGGT,0.19
6,GTACTCACGTGGGGCG,0.13
7,GGTGCCACGTGGATTT,0
8,GTTGGCACGTGGCCGT,-0.31
9,GGCCTCACGTGTGGGC,0.25
10,TAATCCACGTGTTGTG,0.02
11,GGCTGCACGTGTTGCG,0.08
12,ATCCGCACGTGGGTGT,-0.21
13,GGAAGCACGTGTCTTT,0
14,ATTGTCACGTGAAAAA,0.35
15,TGGATCACGTGAGTTA,0.39
16,ATTTTCACGTGATCTT,0.3
17,GGAAGCACGTGATTGT,0.02
18,GGGTACACGTGTGAGG,0.12
19,GGCAACACGTGGGGAT,-0.09
20,GTTTGCACGTGAAGGG,0.34
21,TTGAACACGTGGGTAT,-0.14
22,AGTGCCACGTGATGTT,-0.04
23,AGAAACACGTGGGAGG,-0.04
24,AGCGGCACGTGTGAAA,0.1
25,GTGAGCACGTGGGGTC,-0.2

row,Sequence,relative binding free energy [kcal/mol]
1,CGTGTCACGTGAAGGG,0.36
2,CGCGGCACGTGTTGGA,-0.06
3,GGTGTCACGTGGTCTG,0.04
4,GAAGTCACGTGGTGTT,0.15
5,GTGAGCACGTGTTTTA,-0.06
6,TGGTGCACGTGCTTGT,-0.1
7,CGTTTCACGTGCATGT,0.28
8,GCGTGCACGTGCTTGG,-0.05
9,TAGCGCACGTGGGAGG,-0.26
10,CTATCCACGTGGGGGT,-0.12
11,TTTTTCACGTGACAAG,0.47
12,GCGGTCACGTGTCTGG,0.18
13,AGCTGCACGTGAGGGT,0.17
14,GGTTGCACGTGGAGGA,0.06
15,TTGTTCACGTGGTCTG,0.15
16,AGTGTCACGTGGTCTT,-0.15
17,AGTACCACGTGGTGGG,-0.28
18,TTTATCACGTGGTCTA,-0.05
19,CGGGGCACGTGTAATT,0.16
20,TTTGACACGTGGTCCG,-0.08
21,ATGGACACGTGGGACG,-0.02
22,TTACGCACGTGGGGAT,-0.28
23,GTGTTCACGTGGACGT,0.32
24,TGTCACACGTGTGGTT,0.09
25,TTAGACACGTGGTGCT,-0.13

row,Sequence,relative binding free energy [kcal/mol]
1,TGAACCACGTGGTGGG,-0.06
2,GGTCGCACGTGTGACG,0.11
3,GGTTTCACGTGTAGAA,0.38
4,GTTTACACGTGTGAAA,0.12
5,ATTGGCACGTGATTTT,-0.02
6,TGTGACACGTGGTGAG,-0.04
7,ATTAACACGTGGAAGG,0.16
8,GGGTACACGTGAGGAG,0.41
9,ACTTGCACGTGGTTCG,0.02
10,CGTGACACGTGTGAGT,0.13
11,AAATTCACGTGATGAT,0.41
12,GTTTGCACGTGAGCGT,0.09
13,TATGTCACGTGGATGA,0.07
14,ATGGGCACGTGCGTAG,-0.14
15,CTTGTCACGTGATGCG,0.24
16,TGGTTCACGTGGGGCA,0.25
17,GTTGTCACGTGAAGAG,0.29
18,TAGGGCACGTGTTAAT,0.01
19,TAGGTCACGTGAATAG,0.21
20,GGTGTCACGTGGAGGG,0.17
21,TCAGGCACGTGGCATG,-0.15
22,TGTAACACGTGCGAGT,-0.05
23,GCATTCACGTGAGTTG,0.49
24,AAGTGCACGTGGCTTG,-0.06
25,AGAGGCACGTGCGATT,-0.05

row,Sequence,relative binding free energy [kcal/mol]
1,TATTACACGTGCTGGG,0.15
2,TTTTCCACGTGGGATG,0.01
3,TTGTGCACGTGTTTCG,0.01
4,AGGGTCACGTGGAGTT,0.15
5,GAGTGCACGTGTGTGA,0.08
6,TATATCACGTGCTGGA,0.08
7,GCAGGCACGTGAGAGT,0.24
8,ATTAGCACGTGTGGGC,0.06
9,TTAGACACGTGAAGTG,0.2
10,AGTCTCACGTGTGGTG,0.13
11,GGTGGCACGTGCAGCT,-0.06
12,TCTGTCACGTGCGTAA,0.34
13,AAGGCCACGTGGGGGT,-0.29
14,GAGCGCACGTGTTAGG,-0.03
15,TTGGGCACGTGAATTT,0.22
16,ATGCGCACGTGATGAG,-0.02
17,TGTGACACGTGTGTAC,0.05
18,ATCGGCACGTGATGGC,0.09
19,TGTTCCACGTGTAAGA,0.11
20,AGTGGCACGTGTTTTT,-0.03
21,TGTCACACGTGGGAGG,0
22,AGGGTCACGTGCTGAG,0.04
23,GGGTTCACGTGTGCGG,0.24
24,TAACTCACGTGCGGGG,0.15
25,GGTCGCACGTGTTAGT,0.08

row,Sequence,relative binding free energy [kcal/mol]
1,ATTTTCACGTGCGTAG,0.2
2,AGTTTCACGTGGAGAA,0.28
3,TAATTCACGTGGAGAT,0.35
4,GTAGACACGTGGGCAG,-0.13
5,TCATGCACGTGGGTGA,0.02
6,AAAAACACGTGTGTGG,0.14
7,GATATCACGTGTAATT,0.18
8,GTCGACACGTGTTGGA,0.21
9,ATTTTCACGTGAGTCA,0.31
10,TTGGGCACGTGGTATT,-0.07
11,CGGTTCACGTGATGTG,0.29
12,GTAGTCACGTGCATTG,0.09
13,AGTGGCACGTGCTATG,-0.13
14,GGCCTCACGTGGAGTT,0.48
15,GTGGGCACGTGCGTAT,-0.06
16,GGTGTCACGTGAGGCA,0.19
17,ATTTTCACGTGTATCG,0.26
18,CGCGGCACGTGATAGT,0.13
19,GATTACACGTGATGGA,0.38
20,ATGATCACGTGTTTGC,0.08
21,TGGTACACGTGAGGAA,0.32
22,TAGCTCACGTGTGGGA,0.28
23,ATAGTCACGTGGCGCG,0.01
24,TGAGTCACGTGGATGC,0.07
25,GTCTTCACGTGTAGGA,0.33

row,Sequence,relative binding free energy [kcal/mol]
1,TGGCTCACGTGAGGGA,0.32
2,AAAGTCACGTGAGGGG,0.21
3,GGGGTCACGTGTAAGA,0.21
4,TGTGTCACGTGATTTA,0.28
5,TGCGTCACGTGGAGTA,0.12
6,ATTTTCACGTGTACTA,0.18
7,GGTCTCACGTGGCGGA,0.4
8,ATGGTCACGTGTCGAA,0.07
9,TGCAGCACGTGGATTG,-0.16
10,ATTAGCACGTGTCAGG,-0.06
11,TGGTTCACGTGTTGGT,0.34
12,GGTACCACGTGAGGGT,0.13
13,GTCGGCACGTGTATTT,0.17
14,GTGGACACGTGCGAGA,0.06
15,ATGGCCACGTGTATGT,-0.07
16,CATGTCACGTGAAGGG,0.31
17,CTTTACACGTGAGGGT,0.36
18,TCGCCCACGTGGGGGG,-0.32
19,TGTCTCACGTGTAATT,0.22
20,GGTTCCACGTGAGGAT,0.27
21,ATGGGCACGTGTGGTG,-0.05
